In paper PMC12136788:
The other results are listed elsewhere or left out.

B1: chr11:119170673:119170674:+_ENSG00000110395_ENST00000264033|hu_hu|FALSE|FALSE (ssRNA)
RNA: GGGAGUUCUACAGUCCGACGAUCGUGGGAACUGAAGGACACCUUCAAAUGCACUCAAGACCCAUAAAAUAAUAAAACAUACUAGCUGCUCCAUUUUCAUUUCACCACUUUGAAAUCUUGGAACCACUGAUGUGAUAUCCCACACAACAGAGGAUUGAGCAUCA
B2: chr16:5026692:5026693:-_ENSMUSG00000022536_ENSMUST00000115844|mus_hu|FALSE|FALSE (ssRNA)
RNA: GGGAGUUCUACAGUCCGACGAUCACCCAUUUUUAGCAAGUUGGAGACGAUUCCACUUCCCAUGAGACCAAGGCCCAAAAAUCCUAUCUUUUUGUCUGUGGGUGUGAUGCUGCCAUUCACGGCUGUGCUGUCAGCUGCCUGGAUCAACAGAGGAUUGAGCAUCA
B3: chr11:122930872:122930873:-_ENSG00000109971_ENST00000227378|hu_mus|FALSE|FALSE (ssRNA)
RNA: GGGAGUUCUACAGUCCGACGAUCGACCUUCUUAUCUAAGCCGUAAGCAAUAGCAGCAGCAGUUGGUUCAUUGAUGAUUCGAAGUACAUUGAGGCCAGCAAUAGUUCCAGCAUCUUUUGUUGCCUGUCGCUGAGAGUCAUUGAACAACAGAGGAUUGAGCAUCA
B4: chr8:127356239:127356240:+_ENSMUSG00000036913_ENSMUST00000167588|mus_hu|motif|central (ssRNA)
RNA: GGGAGUUCUACAGUCCGACGAUCGCCCAGGCUCAAUCCGGAAAGCACCACCCUCCUCAAACUUGGUGGGCCAUAGGGCACCGGGGGCGCUGUUGCAACUACAAAGUACAUAUCAGGCUGAAGAUGCAGCCUGGAAAUAUAUACCAACAGAGGAUUGAGCAUCA
B5: chr5:128448638:128448639:+_ENSG00000066583_ENST00000173527|hu_mus|hu_hu_hu_mus_False|78_78 (ssRNA)
RNA: GGGAGUUCUACAGUCCGACGAUCGGCACUCGCCUUAAUUAGGUUCUGAAUUUCCUUGAAUUUUGGAUGGUCUUUGUCAGCCACCAGCUGUAGGAGGACAGCCUCACUAGUGGUCACGAUGAUCCCAGUGCGGGCAAGACGCUCCAACAGAGGAUUGAGCAUCA
B6: chr6:124662746:124662747:+_ENSMUSG00000004264_ENSMUST00000004375|mus_mus|FALSE|FALSE (ssRNA)
RNA: GGGAGUUCUACAGUCCGACGAUCUUCGGCCAGGAUCGUGUCCUGCUGCACGCCACCAAUACGAUUAAAAAAGAUGGCUCUAUGACCGCCUUCCACGGUGAACACGGAUUCGCGGACGCCGUAGGCCACCGCCCCGGCCCCCAGCAACAGAGGAUUGAGCAUCA
B7: chr10:126492284:126492285:-_ENSMUSG00000040502_ENSMUST00000040307|mus_mus|FALSE|FALSE (ssRNA)
RNA: GGGAGUUCUACAGUCCGACGAUCAUGCACACCACUAACCCACACCCCCAGCCCUUAGACCCACAUUCCCCAAAUCCUUUCUAUAAUAAAUAAGAGUUCUUACGCCUCUCUCUCUCAGUAAUACCAUUAGCCGGGCACACCUGGCAACAGAGGAUUGAGCAUCA
B8: chr1:163117127:163117128:-_ENSG00000143248_ENST00000313961|hu_mus|hu_hu_hu_mus_False|1_58 (ssRNA)
RNA: GGGAGUUCUACAGUCCGACGAUCUGCUACAAAGGAUGUAACUCAACUCACAGGGCAACUUUUGGAAGCCUGACCAGAUUACUACUUGAUUAGCUCCUUAUAAAAUUCAGAGCGCACAAAGCGGGGCAGAGAAUCCUUUUCCAUCAACAGAGGAUUGAGCAUCA
B9: chr1:46159212:46159213:+_ENSG00000159596_ENST00000372025|hu_mus|hu_hu_hu_mus_True|8_8 (ssRNA)
RNA: GGGAGUUCUACAGUCCGACGAUCUCUGAUCCCUCCCAAGAAAGCUAGGAAACCGGCUCCAUAAGCCAUCUGAGUGAAAGCUAGGACGGGGAUAUAAGACUUUGUUAUUACCAUGAGAAGUGGGGGAGCAACGAAGGGGAUUAACAACAGAGGAUUGAGCAUCA
B10: chr3:94910677:94910678:-_ENSMUSG00000028126_ENSMUST00000107236|mus_mus|FALSE|FALSE (ssRNA)
RNA: GGGAGUUCUACAGUCCGACGAUCACUUGAGCCGGGCCCCGGGAGUCCCGCGUCUCGGAUAGAACAAACCUAAAGGAAAACCUAGGCACCUGAGGUGCCCCCAAAAGCGAAUGCCCCCCCUCCCUCACCUCCCCAGCCACUGCCCAACAGAGGAUUGAGCAUCA
B11: 80559767_80559887_2609_3pUTR_ENSG00000141568_ENST00000335255|human|control|control (ssRNA)
RNA: GGGAGUUCUACAGUCCGACGAUCAGGGCCUGUGUGAUUCUGAAAGUCUCAGUAGAAAUGGAGUGAUGUGAAAUGCCCAAGACCCCAUUAUUUUGUAAAGAAAGGACACCUCAAAAUACUCUAAUUCCACAUGUCUCCGCUGCCCAACAGAGGAUUGAGCAUCA
B12: chrX:140365796:140365797:-_ENSMUSG00000031285_ENSMUST00000033642|mus_mus|mus_mus_mus_hu_False|1_48 (ssRNA)
RNA: GGGAGUUCUACAGUCCGACGAUCCUUCUCAUUACUCAGUGCCUGCAAGGUUCUGGUUCGGUAGAAGCUACAGUGGGCGCUGUGAGUGGGACUUGGAAACCCAUUCAUCCGGGAGCCUCGCAUGUUCCUGGAUGUCUUGUCUCGCAACAGAGGAUUGAGCAUCA
B13: chr7:108143013:108143014:-_ENSG00000135241_ENST00000257694|hu_mus|FALSE|FALSE (ssRNA)
RNA: GGGAGUUCUACAGUCCGACGAUCGAGGAUUCGGAUUCCUCUGCCUUUCACUGGAUCUACAUAACCAAUUAAAGCCAAAAUUUCUCUAACUGCAGCCUGAAGAGUUUCAUCCUUAACUUGUCUCAGCCGUAAUAAAUAUGGAAUCAACAGAGGAUUGAGCAUCA
B14: chr7:135612270:135612271:-_ENSG00000105887_ENST00000393085|hu_mus|hu_hu_hu_mus_False|58_78 (ssRNA)
RNA: GGGAGUUCUACAGUCCGACGAUCGUUUUUUUCUGAGAUGUUAAAUAGUACUUCAGUAACAAAACUUACUUAACCUUUCGCUAAUGCGUGUUGUACCAAAAGCAGACAUUUUAGCUUCAUUUAUUCAAAAAUAUUAACAUUAAGCAACAGAGGAUUGAGCAUCA

These binders were tested against T1, UNK ZnF1-3 (human, UniProt Q9C0B0 31-174) (assay: nsRBNS (natural sequence RNA bind-n-seq); RBNS binding buffer (assumed for nsRBNS): 25 mM Tris pH 7.5, 150 mM KCl, 3 mM MgCl2, 0.01% Triton X-100, 500 ug/ml BSA, 20 U/ml SUPERase-In, 4 C; UNK is unkempt and MSI1 is Musashi-1; names of the RNAs are library labels; protein concentration not given here; high values mean tight binding).
T1 sequence: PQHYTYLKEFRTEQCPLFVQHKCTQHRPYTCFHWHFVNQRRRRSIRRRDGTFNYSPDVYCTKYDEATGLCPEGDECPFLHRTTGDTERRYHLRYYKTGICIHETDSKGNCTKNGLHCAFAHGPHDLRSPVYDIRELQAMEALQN

Row | Binder | binding signal
1 | B1 | 1.14 enrichment R
2 | B2 | 1.06 enrichment R
3 | B3 | 1.28 enrichment R
4 | B4 | 1 enrichment R
5 | B5 | 0.875 enrichment R
6 | B6 | 0.531 enrichment R
7 | B7 | 2.62 enrichment R
8 | B8 | 1.1 enrichment R
9 | B9 | 1.74 enrichment R
10 | B10 | 1.96 enrichment R
11 | B11 | 1.08 enrichment R
12 | B12 | 0.384 enrichment R
13 | B13 | 1.2 enrichment R
14 | B14 | 0.912 enrichment R
